Experimental data as given in patent publication US7939546B2, “Quinoline derivatives for modulating DNA methylation” (SuperGen, Inc., priority 2007, dated 2011).
Counter-ions that a name gives are not always drawn. Like-named read-outs stand apart in the source and are kept apart here. Some values that stand alone complete this part of the results.

## C/C(=N\N=C(N)N)c1cccc(NC(=O)c2ccc(Nc3ccnc4ccc(N(C)C)cc34)cc2)c1 (as salt: hydrochloride) [Cpd. JJ1, (E)-N-[3-(1-{(diaminomethylene)hydrazono}ethyl)phenyl]-4-[6-(dimethylamino)quinolin-4-ylamino]benzamide dihydrochloride]
glue-liquid transition
  melting point: 278 to 282 °C
powder-glue transition
  melting point: 239 to 243 °C

## C/C(=N\N=C(N)N)c1cccc(NC(=O)c2ccc(Nc3ccnc4ccccc34)cc2)c1 (as salt: hydrochloride) [Cpd. JJ2, (E)-N-[3-(1-{(Diaminomethylene)hydrazono}ethyl)phenyl]-4-(quinolin-4-ylamino)benzamide dihydrochloride]
glue-liquid transition
  melting point: 264 to 268 °C
powder-glue transition
  melting point: 240 to 244 °C
